Measurements: PubChem BioAssay AID504706 (National Center for Advancing Translational Sciences (NCATS), 2011)
Hit rate of the full screen: of about 320,000 compounds, about 200 (0.062%) were called active. The shares of active, inactive and inconclusive entries below differ from those in the screen. The call rests on the fitted dose curve; in most records, active means well fitted activation curve with a large enough effect; inconclusive means small, poorly fitted or top-dose-only effect; inactive means no such curve, though single readings can be large or run the other way. Potencies of inconclusive entries are left out as doubtful fits.

test: qHTS assay for re-activators of p53 using a Luc reporter; conditions: H1299 p53-A138V BP100-luciferase reporter, luminescence, 24 h; series mostly up to 92.2 µM; activity change, positive = activation: at the top concentration; further: nearly all actives have a fitted effect of over 45% in size; on activity change, positive = activation: % of control where 0% means no effect
Method in brief: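 p53-null H1299 cells stably carrying temperature-sensitive p53-A138V and a BP100-luciferase reporter were pinned with compounds (4-point, 1:5 series) and held 24 hrs at 37 deg C. Luminescence was read 10 min after detection reagent.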
Potency means the concentration at half of the fitted maximal effect; tags describe the fitted curve by direction and shape.

Row | SMILES | Potency | activity change, positive = activation
1 | O=C(Nc1ccccc1F)Oc1cccc(OC(=O)Nc2ccccc2F)c1 | inconclusive [activator, partial curve, poor fit] | 
2 | Cc1c(C(=O)N2CCC3(CC2)OCCO3)oc2ccc(S(=O)(=O)N3CCOCC3)cc12 |  | inactive: -1.33%
3 | Cc1ccccc1N1C(=O)NC(=O)/C(=C\c2cc(Br)c(N3CCOCC3)o2)C1=O | inconclusive [activator, single point] | 
4 | Cc1cc(/C=C2\C(=O)NC(=O)N(c3cccc(F)c3)C2=O)c(C)n1-c1cc(C(=O)O)cc(C(=O)O)c1 |  | inactive: -2.47%
5 | O=c1[nH]c(=S)[nH]c(O)c1N=Nc1ccc(S(=O)(=O)N2CCOCC2)cc1 |  | inactive: -2.79%
6 | COc1cccc(C2=NOC(C(=O)N3CCC4(CC3)OCCO4)C2)c1 (stereo unspecified) | inconclusive [activator, full curve, poor fit] | 
7 | O=C(C1CC(c2ccc(F)cc2)=NO1)N1CCC2(CC1)OCCO2 (stereo unspecified) | inconclusive [activator, partial curve, poor fit] | 
8 | COc1ccc2c(c1)NP(=S)(Oc1ccccc1)N2 (stereo unspecified) | inconclusive [activator, partial curve, poor fit] | 
9 | CC(C)(C)c1csc(NC(=O)Nc2ccccc2)n1 | inconclusive [activator, partial curve, poor fit] | 
10 | O=C(O)c1cc[c]([Hg][Cl])cc1 |  | inactive: 5.43%
11 | CC1CCN(CC#CCOc2ccc(Cl)cc2)CC1 | inconclusive [activator, single point] | 
12 | COc1ccc(N/N=C/c2c(O)n(-c3ccc(C)c(C)c3)c(=O)[nH]c2=O)cc1 |  | inactive: 11.7%
13 | O=C(CSCC(=O)N1CCOCC1)Nc1nc(-c2ccc3c(c2)OCO3)cs1 | inconclusive [activator, partial curve, poor fit] | 
14 | COC(=O)C1=C(c2ccc(OC)c(OC)c2)C[C@@H]2CC[C@H]1N2C(=O)N1CCC(O)CC1 | inconclusive [activator, partial curve, poor fit] | 
15 | COC(=O)C1CN(C#N)N(c2ccc(Cl)cc2)C12c1ccccc1-c1ccccc12 (stereo unspecified) |  | inactive: -29%
16 | O=C(CN1CC=C(c2ccccc2)CC1)Nc1cc(Cl)ccc1Cl |  | inactive: -2.9%
17 | COc1ccc(NC2=NCC(C)S2)cc1 (stereo unspecified) | inconclusive [activator, single point] | 
18 | CCN(CC)C(=O)c1ccc(NC(=O)c2cccc(F)c2)cc1 |  | inactive: 17.9%
19 | Nc1c2c(nc3sc4c(c13)CCCC4)CCCCC2 | inconclusive [activator, full curve, poor fit] | 
20 | O=C1OC(=O)C2C1[C@@H]1CC[C@H]2O1 (stereo partly specified) | inconclusive [activator, single point] | 
21 | CCC1=Nc2cc(C(=O)N3CCC4(CC3)OCCO4)ccc2Sc2ccc(C)cc21 |  | inactive: 1.89%
22 | O=C(C1CCN(c2nc3ccc(Br)cc3s2)CC1)N1CCC2(CC1)OCCO2 | inconclusive [activator, single point] | 
23 | CCCCCCOc1ccc(CN2CCN(CCO)CC2)cc1 | inconclusive [activator, partial curve, poor fit] | 

Row | SMILES | Potency | activity change, positive = activation
24 | COC(=O)C1=C(c2c(C)noc2C)C[C@@H]2CC[C@H]1N2C(=O)NC(C)C | inconclusive [activator, single point] | 
25 | CCCCNC(=O)Nc1ccc(C(O)(C(=O)OC)C(F)(F)F)cc1 (stereo unspecified) | inconclusive [activator, partial curve, poor fit] | 
26 | O=[N+]([O-])c1ccc(N2CCCNCC2)c2ncccc12 |  | inactive: -7%
27 | Fc1ccc(C(OCCN2CCCC2)c2ccc(F)cc2)cc1 |  | inactive: -7.13%
28 | COc1ccc(CN2C(=O)NC(=O)/C(=C/c3ccc([N+](=O)[O-])o3)C2=O)cc1 |  | inactive: -2%
29 | Cc1ccc(OCCn2cccc2/C=C2/C(=O)NC(=O)N(Cc3ccco3)C2=O)cc1 |  | inactive: 20.7%
30 | CCOc1ccc(N2C(=O)/C(=C/c3ccc(C)o3)C(=O)NC2=S)cc1 | inconclusive [activator, single point] | 
31 | O=C(c1cc(-c2cccc(Cl)c2)on1)N1CCOCC1 | inconclusive [activator, full curve, poor fit] | 
32 | CCN(CC)C(=O)c1ccc(NC(=O)c2ccc(N3CCCC3=O)cc2)cc1 |  | inactive: 1.22%
33 | Nc1cc2nc3ccccc3nc2cc1N |  | inactive: 5.27%
34 | O=C(CN1CCCCC1)c1ccccc1Cl | inconclusive [activator, partial curve, poor fit] | 
35 | Cc1cc(O)c2c(c1)C(=O)C13C(=C2O)C(=O)[C@H]2[C@@H](O)[C@@H]1[C@H]1[C@H](O)[C@@H]3C(=O)C3=C(O)c4c(O)cc(C)cc4C(=O)C312 (stereo partly specified) |  | inactive: 7.05%
36 | COC(=O)c1c(N)n(Cc2ccc(OC)cc2)c2nc3ccccc3nc12 |  | inactive: -1.19%
37 | Cc1cccc(N=Nc2ccc(N(C)C)cc2)c1 | inconclusive [activator, partial curve, poor fit] | 
38 | COc1ccc2ccccc2c1CNCCc1ccccc1 | inconclusive [activator, single point] | 
39 | C/C(=N\NC(=S)Nc1ccccc1)c1c(O)n(C)c(=O)n(C)c1=O | inconclusive [activator, single point] | 
40 | CN(C)c1ccc(C(=O)c2ccc(N(C)C)cc2)cc1 | inconclusive [activator, full curve, poor fit] | 
41 | CC12CN3CN(C1)CC(c1ccccc1)(C3)C2=O |  | inactive: 0.612%
42 | CCOC(=O)C1CCCN(C(=O)c2ccc3oc(Cc4ccccc4)nc3c2)C1 (stereo unspecified) | inconclusive [activator, partial curve, poor fit] | 
43 | O=C(OCC(=O)c1cccs1)C1=COCCO1 | inconclusive [activator, full curve, poor fit] | 
44 | O=C(CN1CCCCC1)c1ccc2c(c1)OCO2 |  | inactive: 3.79%
45 | COc1cc(C(C)=O)ccc1OC(=O)N(C)c1ccccc1 | inconclusive [activator, single point] | 
46 | CN1CCCN(c2ccc([N+](=O)[O-])nc2)CC1 | inconclusive [activator, single point] | 
